These results are taken from PubChem BioAssay AID1745853 (National Center for Advancing Translational Sciences (NCATS), 2022).

Experiment in all cases: Primary Screen for Target Class Profiling of Small Molecule Inhibitors of Methyltransferases
The target of assay [1] is Glycine N-methyltransferase (Homo sapiens) (UniProt Q14749). Particulars: purified enzyme, MTase-Glo SAH luminescence; measured here: GNMT inhibition; at 40 µM; stronger effect = lower value. In outline:
(§1)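 Each enzyme was reacted with SAM and its substrate, with compounds tested once at 40 uM; SAH formed was read by MTase-Glo luminescence.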

The target of assay [2] is Guanidinoacetate N-methyltransferase (Homo sapiens) (UniProt Q14353). Particulars: purified enzyme, MTase-Glo SAH luminescence; measured here: GAMT inhibition; at 40 µM; stronger effect = lower value. A digest of the protocol: as §1
Assay [3] addresses Histamine N-methyltransferase (Homo sapiens) (UniProt P50135). Particulars: purified enzyme, MTase-Glo SAH luminescence; measured here: HNMT inhibition; at 40 µM; stronger effect = lower value. In outline:
as §1

For assay [4], the target named is Nicotinamide N-methyltransferase (Homo sapiens) (UniProt P40261). Particulars: purified enzyme, MTase-Glo SAH luminescence; measured here: NNMT inhibition; at 40 µM; stronger effect = lower value. In outline:
as §1

The target of assay [5] is Phenylethanolamine N-methyltransferase (Homo sapiens) (UniProt P11086). Particulars: purified enzyme, MTase-Glo SAH luminescence; measured here: PNMT inhibition; at 40 µM; stronger effect = lower value. In outline:
as §1

This is one part of the list. Shown are side measurements of this screen, not its main read-out; they come without a call.
% is set by controls: 0 for no effect and ±100 for the full control effect.

In the case of `CCOC(=O)C1=C(C)NC2=C(C(=O)CC(C)(C)C2)C1c1ccc(-c2ccccc2)cc1` (stereo unspecified), the activity change, negative = inhibition in assay [1] is -11.6%; in assay [2], -40.3%; in assay [3], -5.12%; in assay [4], -45.6%; in assay [5], -22.1%.
As to `Cc1ccc2c(c1)c1c3n2CCN(CCC(=O)O)C3CCC1` (stereo unspecified), the activity change, negative = inhibition was -10.1% in assay [1]; 0.821% in assay [2]; -2.38% in assay [3]; 6.62% in assay [4]; -8.22% in assay [5].
Taken in the same sequence, the figures for `Cc1c(O)cc(O)c2c(=O)c(O)c(-c3ccc(O)c(O)c3)oc12` were -11.8%, 5.28%, -8.44%, -7.84% and -11.2%.
As for `COc1cccc2c1c(O)c(C(=O)N(C)c1ccc(C(F)(F)F)cc1)c(=O)n2C`, the activity change, negative = inhibition in assay [1] was 1.24%; in assay [2] it was -0.657%; in assay [3] it was 6.66%; in assay [4], -12.3%; in assay [5], -1.22%.
Regarding `S=C(c1ccc(-c2ccc(Cl)c(Cl)c2)o1)N1CCCCC1`, the activity change, negative = inhibition in assay [1] is 1.72%; in assay [2], -12.1%; in assay [3], 10.8%; in assay [4], -40.2%; in assay [5], -12.5%.
For the compound `Cc1nn(C)c(C)c1NC(=O)CC[C@H]1NC(=O)c2ccccc2NC1=O`, the activity change, negative = inhibition was 0.662% in assay [1]; -3.44% in assay [2]; 2.06% in assay [3]; -5.74% in assay [4]; -9.77% in assay [5].
Taken in the same sequence, the figures for `CCCSCCCN1C(=O)c2cc3occc3n2CC1(C)C(=O)NC1CCCCC1C` (stereo unspecified) were 0.555%, 6.82%, -0.497%, -2.24% and -1.78%.
As to `COc1ccc(OC)c(CN2CCC3(CC2)Nc2ccccc2NC3=O)c1`, the activity change, negative = inhibition was -3.25% in assay [1]; 0.589% in assay [2]; -13.3% in assay [3]; -1.72% in assay [4]; 0.666% in assay [5].
`CC1CCCCN1S(=O)(=O)c1ccc(NC(=O)CN2C(=O)c3ccccc3S2(=O)=O)cc1` (stereo unspecified): the activity change, negative = inhibition is -2.1% in assay [1]; 2.31% in assay [2]; -0.196% in assay [3]; -5.46% in assay [4]; -3.05% in assay [5].
For `CC(=O)Nc1c2n(c3ccc(F)cc13)CC(C)(C(=O)NC1CCCCCC1)N(CCN(C)C)C2=O` (stereo unspecified) the same measures were 0.216%, -3.4%, -0.744%, -0.063% and 1.82%.
Taken in the same sequence, the figures for `NNCCc1ccccc1` were -7.56%, 10.4%, -20.9%, -10.4% and -7.7%.
For `COc1ccc(Cl)c(Nc2ncnc3cc(OCC4CCN(C)CC4)c(OC)cc23)c1`, the activity change, negative = inhibition was -14.2% in assay [1]; 4.01% in assay [2]; -39.9% in assay [3]; -13.9% in assay [4]; -14.9% in assay [5].
Turning to `CN1C(=O)c2cc(C(=O)NCCC3=CCCCC3)nn2CC1(C)C(=O)NC1CCCCCC1` (stereo unspecified), the activity change, negative = inhibition in assay [1] worked out at 4.47%; in assay [2] it was 0%; in assay [3], 3.1%; in assay [4] it was 4.95%; in assay [5] it was 0.544%.
`Nc1nc(Nc2ccc3c(c2)CC[C@@H](N2CCCC2)CC3)nn1-c1cc2c(nn1)-c1ccccc1CCC2`: the activity change, negative = inhibition in assay [2] is 1.54%; in assay [4], -29.3%; in assay [5], -13.6%.
Regarding `CCOC(=O)c1cc2n(n1)CC(C)(C(=O)NC1CCCC1)N(Cc1ccc(OC)cc1)C2=O` (stereo unspecified), the activity change, negative = inhibition stood at 5.29% in assay [1]; 1.08% in assay [2]; 8.43% in assay [3]; 10% in assay [4]; 5.51% in assay [5].
Consider `C=C1CC[C@@H]2[C@](C)(CO[C@@H]3O[C@H](CO)[C@@H](O)[C@H](O)[C@H]3O)[C@H](O)CC[C@@]2(C)[C@@H]1C/C=C1/C(=O)OC[C@H]1O`, for which the activity change, negative = inhibition is -4.51% in assay [1]; -17.7% in assay [2]; 2.51% in assay [3]; -27.4% in assay [4]; -2.69% in assay [5].
In the case of `Cc1ccccc1N1C(=O)c2cc3occc3n2CC1(C)C(=O)NC1CCCCCC1` (stereo unspecified), the activity change, negative = inhibition was 2.42% in assay [1]; 0.547% in assay [2]; 5.32% in assay [3]; -0.536% in assay [4]; -1.15% in assay [5].
Taken in the same sequence, the figures for `CSCC(=O)N[C@H]1CCN2C(=O)c3ccc(Cl)cc3NC(=O)[C@@H]2C1` were -0.988%, -0.621%, -13.6%, 0.833% and 0.922%.
`COCCN1C(=O)c2c(NC(C)=O)c3cc(OC)ccc3n2CC1(C)C(=O)NC1CCCCCC1` (stereo unspecified): the activity change, negative = inhibition in assay [1] came out at 2.33%; in assay [2], 0%; in assay [3], 6.5%; in assay [4] it was 5.78%; in assay [5], 0.311%.
For `CCOCCOC1CCN(C(=O)c2cccc3[nH]ccc23)CC1` the same measures were -6.74%, -10.4%, -3.58%, -21.9% and -19.3%.
As to `CCCCn1c(-c2ccccc2)nc(-c2ccccc2)c1CN(Cc1ccc2c(c1)OCO2)Cc1ccc2c(c1)OCO2`, the activity change, negative = inhibition in assay [1] is -7.52%; in assay [2] it was -37.3%; in assay [3], 0.123%; in assay [4], -42.4%; in assay [5] it was -16.4%.
For `C=CCn1c(=O)c2ccc(C(=O)NC(C)C)cc2n2c(=O)[nH]nc12` the same measures were 1.72%, 0.764%, 8.25%, 7.81% and 0.552%.
Regarding `Cc1ccc(C(C(=O)O)N2CCC(CCN3CCCC3=O)CC2)cc1C` (stereo unspecified), the activity change, negative = inhibition was -1.15% in assay [1]; -4.79% in assay [2]; -0.305% in assay [3]; -0.448% in assay [4]; -4.18% in assay [5].
For `CCOC(=O)c1ccc2c(c1)[C@@H]1C=CC[C@@H]1[C@H](c1cccc(Br)c1)N2` the same measures were -13.1%, -3.53%, -12.8%, -11.6% and -16.1%.
In the case of `C[C@@]1(C(=O)Nc2ccc(F)nc2)CCCN1c1nc(Nc2cc(C3CC3)[nH]n2)c2cccn2n1`, the activity change, negative = inhibition in assay [1] was -3.76%; in assay [2], -2.73%; in assay [3] it was 0.338%; in assay [4], -23.9%; in assay [5], -8.38%.
Turning to `O=C1NC(=O)/C(=C/c2ccc3c(c2)OCO3)S1`, the figures for the activity change, negative = inhibition in assay [2], in assay [4] and in assay [5] were 0.398%, -21.2% and -8.34%, respectively.
For `CCNC(=O)NCCCOc1cccc(CN2CCCCC2)c1`, the activity change, negative = inhibition in assay [1] is 1.66%; in assay [2] it was 6.18%; in assay [3], -7.68%; in assay [4] it was -11.3%; in assay [5] it was -3.18%.
Taken in the same sequence, the figures for `Cc1nnc2n1CCC(NC(=O)CCCc1c[nH]c3ccccc13)CC2` (stereo unspecified) were -2.74%, -6.67%, -1.38%, -10.4% and -5.95%.
For `COc1cccc(CN2CCCC3(CCN(C(=O)c4cnc(C)cn4)C3)C2)c1` (stereo unspecified) the same measures were 0.212%, 0.95%, -0.868%, -2.66% and -0.347%.
Take `COc1ccc(-c2ccc(N)[n+](CCCC(=O)O)n2)cc1`: the activity change, negative = inhibition in assay [1] is -2.27%; in assay [2] it was 7.14%; in assay [3] it was 4.55%; in assay [4], -6.16%; in assay [5], 4.93%.
As for `C=C[C@]1(C)C[C@H](O)[C@H]2C(=C)C(=O)O[C@@H]2[C@H]1C(=C)CO`, the activity change, negative = inhibition in assay [1] is -3.33%; in assay [2], -3.56%; in assay [3], 4.17%; in assay [4], -11.1%; in assay [5], -5.79%.
